Test results published in US20100015650.

T1: BRB1 tyrosine kinase substrate peptide
T1 chain: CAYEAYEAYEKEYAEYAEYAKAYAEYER


Molecular target: T1, BRB1 tyrosine kinase substrate peptide

Row | Protein | Signal to Noise ratio with BRB1 Peptide (TR-FRET kinase assay; kinase 0.25 nM) | Signal to Noise ratio with BRB1 Peptide (TR-FRET kinase assay; kinase 0.5 nM)
1 | ABL (protein) LEICLKLVGCKSKKGLSSSSSCYLEEALQRPVASDFEPQGLSEAARWNSKENLLAGPSE[about 60 residues not listed]LEKHSWYHGPVSRNAAEYLLSSGINGSFLVRESESSPGQRSISLRYEGRVYHYRINTASDGKLYVSSESRFNTLAELVHHHSTVADGLITTLHYPAPKRNKPTVYGVSPNYDKWEMERTDITMKHKLGGGQYGEVYEGVWKKYSLTVAVKTLKEDTMEVEEFLKEAAVMKEIKHPNLVQLLGVCTREPPFYIITEFMTYGNLLDYLRECNRQEVNAVVLLYMATQISSAMEYLEKKNFIHRDLAARNCLVGENHLVKVADFGLSRLMTGDTYTAHAGAKFPIKWTAPESLAYNKFSIKSDVWAFGVLLWEIATYGMSPYPGIDLSQVYELLEKDYRMERPEGCPEKVYELMRACWQWNPSDRPSFAEIHQAFETMFQESSISDEVEKELGKQGVRGAVSTLLQAPELPTKTRTSRRAAEHRDTTDVPEMPHSKGQGESDPLDHEPAVSPLLPRKERGPPEGGLNEDERLLPKDKKTNLFSALIKKKKKTAPTPPKRSSSFREMDGQPERRGAGEEEGRDISNGALAFTPLDTADPAKSPKPSNGAGVPNGALRESGGSGFRSPHLWKKSSTLTSSRLATGEEEGGGSSSKRFLRSCSASCVPHGAKDTEWRSVTLPRDLQSTGRQFDSSTFGGHKSEKPALPRKRAGENRSDQVTRGTVTPPPRLVKKNEEAADEVFKDIMESSPGSSPPNLTPKPLRRQVTVAPASGLPHKEEAGKGSALGTPAAAEPVTPTSKAGSGAPGGTSKGPAEESRVRRHKHSSESPGRDKGKLSRLKPAPPPPPAASAGKAGGKPSQSPSQEAAGEAVLGAKTKATSLVDAVNSDAAKPSQPGEGLKKPVLPATPKPQSAKPSGTPISPAPVPSTLPSASSALAGDQPSSTAFIPLISTRVSLRKTRQPPERIASGAITKGVVLDSTEALCLAISRNSEQMASHSAVLEAGKNLYTFCVSYVDSIQQMRNKFAFREAINKLENNLRELQICPATAGSGPAATQDFSKLLSSVKEISDIVQR | 4.1 | 
2 | ABL [T315I] (ABL1) (protein) LEICLKLVGCKSKKGLSSSSSCYLEEALQRPVASDFEPQGLSEAARWNSKENLLAGPSE[about 60 residues not listed]LEKHSWYHGPVSRNAAEYLLSSGINGSFLVRESESSPGQRSISLRYEGRVYHYRINTASDGKLYVSSESRFNTLAELVHHHSTVADGLITTLHYPAPKRNKPTVYGVSPNYDKWEMERTDITMKHKLGGGQYGEVYEGVWKKYSLTVAVKTLKEDTMEVEEFLKEAAVMKEIKHPNLVQLLGVCTREPPFYIIIEFMTYGNLLDYLRECNRQEVNAVVLLYMATQISSAMEYLEKKNFIHRDLAARNCLVGENHLVKVADFGLSRLMTGDTYTAHAGAKFPIKWTAPESLAYNKFSIKSDVWAFGVLLWEIATYGMSPYPGIDLSQVYELLEKDYRMERPEGCPEKVYELMRACWQWNPSDRPSFAEIHQAFETMFQESSISDEVEKELGKQGVRGAVSTLLQAPELPTKTRTSRRAAEHRDTTDVPEMPHSKGQGESDPLDHEPAVSPLLPRKERGPPEGGLNEDERLLPKDKKTNLFSALIKKKKKTAPTPPKRSSSFREMDGQPERRGAGEEEGRDISNGALAFTPLDTADPAKSPKPSNGAGVPNGALRESGGSGFRSPHLWKKSSTLTSSRLATGEEEGGGSSSKRFLRSCSASCVPHGAKDTEWRSVTLPRDLQSTGRQFDSSTFGGHKSEKPALPRKRAGENRSDQVTRGTVTPPPRLVKKNEEAADEVFKDIMESSPGSSPPNLTPKPLRRQVTVAPASGLPHKEEAGKGSALGTPAAAEPVTPTSKAGSGAPGGTSKGPAEESRVRRHKHSSESPGRDKGKLSRLKPAPPPPPAASAGKAGGKPSQSPSQEAAGEAVLGAKTKATSLVDAVNSDAAKPSQPGEGLKKPVLPATPKPQSAKPSGTPISPAPVPSTLPSASSALAGDQPSSTAFIPLISTRVSLRKTRQPPERIASGAITKGVVLDSTEALCLAISRNSEQMASHSAVLEAGKNLYTFCVSYVDSIQQMRNKFAFREAINKLENNLRELQICPATAGSGPAATQDFSKLLSSVKEISDIVQR |  | 4.8
